Values marked as one replicate rest on one cluster of the flow cell; about a third of the high ones do not repeat.
tested on: ATP; assay: switch fluorescence ratio, 500 uM ATP over buffer (Cy3 cluster intensity, sum of 5 cycles each) (fold (ratio)); higher = stronger signal-on switching upon ATP binding; sequences stand for … in TCGTCGGCAGCGTCAGATGTGTATAAGAGACAGTTTTTTTTTTTTTTTTTTTTTTTTT…TC; settings: aptamer strand: ATP DNA aptamer (quencher-CACCTGGGGGAGTATTGCGGAGGAAGG + anchor), 100 nM annealed; ATP concentration: 500 uM; one replicate
Outline: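 For every switch-domain sequence, the fluorescence ratio is the mean of per-cluster values, each being summed target-cycle Cy3 intensity over summed buffer-cycle Cy3 intensity. Clusters outside 100-1000 RFU were excluded. On a modified Illumina MiSeq flow-cell, the Cy3-labelled switching-strand clusters were annealed to 100 nM quencher-labelled ATP aptamer, imaged in selection buffer and then after 15 min with 500 uM ATP at 22 °C. Five such cycles were run, with NaOH stripping and re-annealing between them.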
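Further: ATP exposure 15 min at 22 °C before imaging.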

Sequence	switch fluorescence ratio
TCCTTAGACG	1.01
TCCTTATGC	1.1
TCCTTCGATT	1.42
TCCTTGAGAG	1.03
TCCTTGGCA	1.6
TCCTTGTTGG	0.973
TCGAAACGAT	0.992
TCGAAGCGAT	3.3
TCGAAGGCAA	1.14
TCGAATCAAG	0.973
TCGAATCGCA	1.35
TCGAATGAAT	1.01
TCGACACGGG	1.05
TCGACCAGGG	1.15
TCGACGGACT	1.15
TCGACGTGC	1.68
TCGAGACCGA	1.05
TCGAGATAGG	0.997
TCGAGCACCG	1.02
TCGAGCCGTG	1.02
TCGAGGCTGG	0.961
TCGAGTGTGT	1.02
TCGATACCAC	1.05
TCGATAGATT	0.998
TCGATATAGC	1.03

Sequence	switch fluorescence ratio
TCGATCATT	0.941
TCGATCATTG	1.01
TCGATCGCGC	1.82
TCGATCGTCC	1.03
TCGATCTTTG	0.955
TCGATGACGT	1.02
TCGATGGCGT	1.04
TCGATTCGTT	1.36
TCGCAAAAAA	1.4
TCGCAAAAGT	1.33
TCGCAGCGAA	1.07
TCGCATACGG	2.61
TCGCCACAAG	1.22
TCGCCAGAAT	0.998
TCGCCATGCC	1
TCGCCCTGCC	1.04
TCGCCGTCAT	1.02
TCGCCGTTGG	0.992
TCGCCTACTG	1.05
TCGCGAACCG	1.01
TCGCGAGCTG	1.02
TCGCGCGCCG	0.942
TCGCGCTTGT	1.76
TCGCGGGCTG	0.98
TCGCGTAATG	0.943

Sequence	switch fluorescence ratio
TCGCGTCAAG	1.04
TCGCGTCATT	0.982
TCGCGTTCTT	0.993
TCGCTAACGA	1.18
TCGCTAAGTC	1.11
TCGCTATTCG	1.03
TCGCTCATAA	1.2
TCGCTGCGT	1.04
TCGCTTGACC	1.07
TCGCTTGCAC	1.12
TCGCTTGGAT	0.986
TCGCTTGTCT	0.956
TCGGAAAAGG	0.962
TCGGAAAAT	1.03
TCGGAACCGG	0.987
TCGGAAGAGT	1.04
TCGGAAGGCA	1.07
TCGGAATAAC	2.35
TCGGAATAT	1.16
TCGGACTATG	1.04
TCGGAGCCCG	1.06
TCGGAGCTG	1.15
TCGGAGTATG	1.07
TCGGATACAT	1
TCGGCAAATG	1.05

Sequence	switch fluorescence ratio
TCGGCACCCT	1.06
TCGGCCTGCG	0.936
TCGGCGCTCG	0.965
TCGGCGGAGT	1
TCGGCGTTCG	1
TCGGCTAAAA	1.04
TCGGGAAACC	1.04
TCGGGAAACG	0.992
TCGGGAATGG	0.994
TCGGGACTCA	0.963
TCGGGAGACG	0.981
TCGGGAGTAG	1.01
TCGGGCAATT	1.63
TCGGGCCTTG	1.12
TCGGGCTTCT	1.04
TCGGGGAGTA	1.04
TCGGGGCGC	0.938
TCGGGGTCG	1.06
TCGGGTAATG	0.998
TCGGGTATGA	1.02
TCGGGTGTTT	1.04
TCGGGTTCGC	1.01
TCGGGTTTCT	0.955
TCGGTCCCCC	1.03
TCGGTCCGA	1.02
